# Over roughly 110,000 compounds, “z-score” has its median near -0.1; the highest 2% begin near 2. The list shows a part of the results.
# Target: Metabotropic glutamate receptor 8 (Rattus norvegicus) (UniProt P70579)
# Experiment: rat mGluR8 modulators via GIRK flux, primary screen, cell-based, thallium flux, HTS (AID 488969)
# Conditions: HEK293 rat mGluR8, GIRK (G protein-gated inwardly rectifying potassium channel) thallium flux, FluoZin2; at 10 µM; stronger effect = higher value; submaximal glutamate (EC20) added with thallium
# UniProt P70579, sequence (P70579 whole entry, looked up): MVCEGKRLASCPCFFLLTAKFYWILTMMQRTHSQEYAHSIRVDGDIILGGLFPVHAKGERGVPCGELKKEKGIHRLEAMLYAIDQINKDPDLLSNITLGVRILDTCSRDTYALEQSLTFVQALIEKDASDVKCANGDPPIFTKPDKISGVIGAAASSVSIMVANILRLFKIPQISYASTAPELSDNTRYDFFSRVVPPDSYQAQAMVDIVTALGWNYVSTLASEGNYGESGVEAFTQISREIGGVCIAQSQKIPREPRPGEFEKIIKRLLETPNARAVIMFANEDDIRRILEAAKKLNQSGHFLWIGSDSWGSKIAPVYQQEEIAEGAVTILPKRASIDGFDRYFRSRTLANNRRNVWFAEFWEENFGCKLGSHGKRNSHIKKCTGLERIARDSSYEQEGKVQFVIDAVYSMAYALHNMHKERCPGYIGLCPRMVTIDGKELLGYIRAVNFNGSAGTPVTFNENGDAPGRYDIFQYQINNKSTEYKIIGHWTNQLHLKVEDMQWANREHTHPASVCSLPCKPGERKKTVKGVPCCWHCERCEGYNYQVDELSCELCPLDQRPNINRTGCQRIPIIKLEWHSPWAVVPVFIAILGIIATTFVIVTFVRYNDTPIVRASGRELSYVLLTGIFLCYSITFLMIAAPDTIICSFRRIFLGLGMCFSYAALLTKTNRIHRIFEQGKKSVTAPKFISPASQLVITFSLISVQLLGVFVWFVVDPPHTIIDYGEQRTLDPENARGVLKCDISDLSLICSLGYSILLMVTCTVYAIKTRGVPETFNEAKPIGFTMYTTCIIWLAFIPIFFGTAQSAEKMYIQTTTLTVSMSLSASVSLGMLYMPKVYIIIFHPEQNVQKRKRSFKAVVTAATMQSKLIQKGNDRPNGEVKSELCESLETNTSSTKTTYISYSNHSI
row,Compound,z-score
1,CCOc1cc(C2NC(=O)NC(O)(C(F)(F)F)C2C(=O)c2ccc(Cl)cc2)ccc1O (configuration not stated),0.149
2,Fc1ccc2nc(Nc3nc4cc5c(cc4s3)OCCO5)sc2c1,-0.101
3,COc1ccc(CCNC(=O)C(C(=O)c2ccccc2)n2cc(Cl)ccc2=O)cc1OC (configuration not stated),0.409
4,COCCCN1C(=O)C(=O)/C(=C(/O)c2ccc(OCC(C)C)cc2C)C1c1cccnc1 (configuration not stated),-0.0415
5,COc1ccc(NC(=O)C2CCC(CNc3c(N4CCCCC4)c(=O)c3=O)CC2)cc1OC (configuration not stated),-0.375
6,CCn1nccc1C(=O)Nc1nccs1,0.146
7,O=C1Nc2ccccc2CCC1Sc1nnc(-c2ccc(Cl)cc2)s1 (configuration not stated),-0.107
8,COc1cc(/C=C/C(=O)OCC(=O)NCc2ccco2)cc(OC)c1OC,-0.291
9,COc1ccc(S(=O)(=O)N2CCCCCC2)cc1C(=O)OCC(=O)NCC(C)C,-0.098
10,CCOC(=O)N1CCN(C(=O)C(NS(=O)(=O)c2cccc3nsnc23)c2ccccc2)CC1 (configuration not stated),0.727
11,Cn1c(SCC(=O)N2CCN(c3cccc(Cl)c3)CC2)nnc1-c1ccncc1,-0.394
12,CN(C(=O)C12CC3CC(CC(C3)C1)C2)C1CCS(=O)(=O)C1 (configuration not stated),-0.0122
13,COc1cc2c(cc1OC)C(c1cccc([N+](=O)[O-])c1)N(C(=O)c1ccc(F)cc1)CC2 (configuration not stated),-1.34
14,CC(C)(C)NC(=O)C(c1ccco1)N(Cc1ccc(F)cc1)C(=O)c1snc(C(N)=O)c1N (configuration not stated),-0.414
15,Cc1nc(NCCc2ccc(F)cc2)c(C#N)c(C)c1[N+](=O)[O-],-0.205
16,O=C(Cc1cccc2ccccc12)N/N=C1\CCCc2ccccc21,0.00286
17,COC(=O)c1ccc(NC(=O)c2ccccc2NS(=O)(=O)c2ccccc2)cc1,-0.484
18,CC(=O)N1CCc2cc(S(=O)(=O)CCC(=O)N3CCN(C(=O)c4ccco4)CC3)ccc21,0.0829
19,CCN=C1S/C(=C\c2ccc(N3CCOCC3)cc2C)C(=O)N1CC,0.908
20,CCC(C)NC(=O)C1c2cc(OC)c(OC)cc2C(=O)N(C)C1c1ccc(OC)cc1 (configuration not stated),0.0855
21,O=c1c2ccccc2cnn1-c1ccc(Cl)cc1,-0.0417
22,CCOC(=O)C1=C(C)Nc2ccccc2N=C1NC(=O)Cc1ccc(OC)cc1,-0.00752
23,Cc1cc(C)nc(NC(=O)c2ccc(C)c([N+](=O)[O-])c2)n1,-0.0674

row,Compound,z-score
1,CSc1nc(N)nc(SCCS(=O)(=O)c2ccc(Cl)cc2)c1C#N,-0.35
2,Cc1cc(C(=O)CSc2nnc(-c3ccc(F)cc3)o2)c(C)n1CC1COc2ccccc2O1 (configuration not stated),-0.115
3,O=C(CCc1ccccc1)NNC(=O)C1CCCCC1,0.0776
4,COc1ccc(NC(=O)CN2CCC(C)CC2)c([N+](=O)[O-])c1,-0.201
5,CCOC(=O)C1CCCN(C(=O)CN2C(=O)COc3ccc(C(C)(C)C)cc32)C1 (configuration not stated),-1.06
6,CCN(c1ccccc1)S(=O)(=O)c1ccc(C(=O)OC(C)C(=O)NCCC2=CCCCC2)cc1 (configuration not stated),-0.089
7,O=C(Cn1cnc2ccccc21)N/N=C/c1ccccc1[N+](=O)[O-],-0.096
8,CC(=O)Nc1nnc(SCC(=O)NCCOc2ccccc2)s1,1.03
9,O=C(O)CC1S/C(=N/N=C/c2ccc(-c3ccc(Cl)cc3[N+](=O)[O-])o2)NC1=O (configuration not stated),0.0587
10,CCOC(=O)c1ccc(NC(=O)Cn2ncc(Cl)c(Cl)c2=O)cc1,-0.205
11,O=C(COc1ccc(Cl)cc1)Nc1ncccn1,0.0854
12,Cc1nn(C)cc1/C=N/NC(=O)C(C)(C)Oc1ccc(Cl)cc1,-0.174
13,O=C(CSc1nnc(-c2ccccc2)c(-c2ccccc2)n1)Nc1ccc(Br)cn1,-0.0996
14,CSc1cccc(NC(=O)c2ccco2)c1,-0.693
15,Cc1ccc(-n2cc(C(=O)c3cc(Cl)ccc3O)cc(C#N)c2=O)cc1,-0.415
16,Cc1ccc(C(=O)N/C(=C/c2cccs2)C(=O)NCCc2c[nH]c3ccccc23)cc1,-0.137
17,CCC(=O)N1c2ccc(S(=O)(=O)CCC(=O)N3CCN(c4ccccc4)CC3)cc2CC1C (configuration not stated),-0.0112
18,CCOC(=O)c1ccccc1NC(=O)CN(c1ccccc1OC)S(C)(=O)=O,-0.158
19,O=C1c2ccccc2C(Nc2ccccc2)N1c1ccc(Cl)cn1 (configuration not stated),-1.69
20,COc1ccc(Oc2ncc(CN3CCN(c4ccccc4)CC3)s2)cc1,0.957
21,CC1(C)Cc2nc3sc4c(=O)n(CC(=O)NCc5ccccc5)cnc4c3cc2CO1,-0.0873
22,Cc1cccc(C)c1NC(=O)C(NC(=O)c1ccccn1)c1ccc([N+](=O)[O-])cc1 (configuration not stated),2.97
23,Cc1cc2ncn(-c3ncnc4sc5c(c34)CCCC5)c2cc1C,0.23

row,Compound,z-score
1,Cc1cc(N/C=C2\CCCCC2=O)no1,-1.13
2,CC(=O)Nc1ccc(C(=O)OCc2ccc(Br)cc2)cc1,0.529
3,Cc1cc(NC(=O)COC(=O)c2n[nH]c3ccccc23)no1,0.11
4,S=c1[nH]nc(-c2ccco2)n1/N=C/c1cccs1,-0.0217
5,CNc1ccc(Br)cc(C(=O)/C=C/c2cccc(OC)c2OC)c1=O,-0.222
6,Cn1c(SCC(=O)NC(c2ccccc2)c2ccccc2)nnc1-c1cccs1,0.417
7,CC(C)(C)n1nnnc1C(c1cccc(C#N)c1)N1CCCCCC1 (configuration not stated),-0.393
8,CCN(CC)c1ccc(/C=N/NC(=S)NCc2ccco2)cc1,0.137
9,Cc1ccc(NC(=O)c2nc[nH]c2C(=O)Nc2ccc(C)cc2)cc1,-0.0719
10,O=C(Nc1ccccc1)N1CCn2c1nc1ccccc12,-0.491
11,CC(=O)Nc1ccccc1N(CC(O)Cn1c2ccccc2c2ccccc21)S(=O)(=O)c1ccc(C)cc1 (configuration not stated),0.249
12,CCN(CC)N=Nc1[nH]nc2nc(C)cc(C)c12,0.248
13,Cc1ccc2oc(=O)c3cnn(CC(=O)N(Cc4ccco4)C4CCCCC4)c3c2c1,-0.707
14,COC(=O)CNC(c1ccccc1)c1cc(Br)ccc1NS(=O)(=O)c1ccccc1 (configuration not stated),-0.0772
15,CCCC(C)c1nnc(NC(=O)c2cc(C(=O)OC)cc([N+](=O)[O-])c2)s1 (configuration not stated),-0.231
16,Cc1ccc(-c2csc(NC(=S)NC(=O)/C=C/c3ccco3)n2)cc1,0.239
17,Cc1cc(NC(=O)COn2nnc3ccccc32)no1,0.234
18,COC(=O)c1ccc(C(=O)OC)c(NC(=O)CS(=O)(=O)Cc2ccccc2)c1,-0.0763
19,Cc1cc(N)n2ncc(-c3ccccc3)c2n1,-0.0202
20,Nc1nnc(SCC(=O)Nc2ccccc2N2CCOCC2)s1,-0.16
21,O=C(COc1ccc2ccccc2c1)N1CCCC1,0.16
